# From PubChem BioAssay AID2675 (National Center for Advancing Translational Sciences (NCATS), 2010)
# In all, about 280,000 compounds went through this assay and about 100 (0.036%) were called active. This list was built around the results that the source calls inconclusive (neither active nor inactive); the mix of calls is not that of the screen. The call rests on the fitted dose curve; in most records, active means well fitted inhibition curve with a large enough effect in the signal ratio, with a control signal flat (not every such curve was filed as active); inconclusive means small, poorly fitted or top-dose-only effect, or effect the other way, or a change in a side signal; inactive means no such curve, though single readings can be large or run the other way; the % refers to the signal ratio. Potencies beside an inconclusive call are fits to weak or partial responses and may not hold up. A note “side channel” means that the fit belongs to a control or component signal, not to the main read-out.
# Molecular target: Muscleblind-like protein 1 (Homo sapiens) (UniProt Q9NR56)
# UniProt Q9NR56, sequence (Q9NR56 whole entry, looked up): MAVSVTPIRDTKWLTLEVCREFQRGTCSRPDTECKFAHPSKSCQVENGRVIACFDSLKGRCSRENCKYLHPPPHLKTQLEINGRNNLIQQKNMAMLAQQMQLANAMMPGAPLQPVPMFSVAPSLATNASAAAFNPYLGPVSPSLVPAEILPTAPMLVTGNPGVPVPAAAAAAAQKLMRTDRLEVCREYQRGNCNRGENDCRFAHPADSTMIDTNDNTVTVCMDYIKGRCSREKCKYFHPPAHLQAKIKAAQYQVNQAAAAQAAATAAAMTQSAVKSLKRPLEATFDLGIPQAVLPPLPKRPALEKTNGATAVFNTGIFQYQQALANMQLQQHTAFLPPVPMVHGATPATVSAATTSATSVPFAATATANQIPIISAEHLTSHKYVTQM
# Assay: qHTS Assay for Inhibitors of MBNL1-poly(CUG) RNA binding
# Conditions: TR-FRET MBNL1-His/biotin-(CUG)12 binding, 665/545 ratio; series mostly up to 57.5 µM
# Method in brief: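 Ratiometric TR-FRET (665 over 545 nm, excitation 340 nm) tracks disruption of MBNL1-His/biotin-(CUG)12 complex after 60 min at room temperature, with compounds at 92 nM to 58 uM final.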
# Potency means the concentration at half of the fitted maximal effect; tags describe the fitted curve by direction and shape or compound fluorescence and quenching.
row,Structure (SMILES),Potency
1,Cc1ccc(NC(=O)C2OCCc3ccccc32)cc1 (stereo not drawn),"inconclusive: 0.1 µM [inhibitor, full curve, poor fit]"
2,COc1ccc(/C=C2\SC(=O)N(CCc3nnc(N)s3)C2=O)cc1,"inconclusive: 5.01 µM [quencher, side channel, partial curve]"
3,O=c1oc2ccccc2cc1-c1csc(Nc2nc3c(F)cccc3s2)n1,"inconclusive: 39.8 µM [fluorescent, side channel, partial curve, poor fit]"
4,CCOc1ccc(Br)cc1C(=O)N/N=C/c1ccccn1,inactive
5,CCCCCC(=O)NNC(=S)NC(=O)c1cccc([N+](=O)[O-])c1,"inconclusive: 28.2 µM [quencher, side channel, partial curve]"
6,Cc1cc(-c2nn(-c3ccccc3F)cc2CN2CCC(C(N)=O)CC2)c(C)s1,inactive
7,Cc1nnc(N/N=C/c2c[nH]c3ccccc23)[nH]c1=O,"inconclusive: 39.8 µM [quencher, side channel, single point]"
8,CNc1ccccc1C(C)(C)c1cn(-c2ccc([N+](=O)[O-])cc2)nn1,"inconclusive: 14.1 µM [quencher, side channel, partial curve]"
9,CSc1nnc(-c2ccccc2)n1C,inactive
10,Clc1nssc1=Nc1ccc(Br)cc1,inactive
11,COc1ccc(-c2cc(C(F)(F)F)n3nc(C(=O)N4CCN5CCCC5C4)cc3n2)cc1OC (stereo not drawn),"inconclusive: 28.2 µM [quencher, side channel, partial curve]"
12,COc1cc2cc(CN(Cc3nnnn3Cc3ccccc3)CC3CCCO3)c(=O)[nH]c2cc1OC (stereo not drawn),"inconclusive: 12.6 µM [quencher, side channel, partial curve]"
13,COC(=O)Nc1sc2c(c1C(N)=O)CCCCCC2,inactive
14,CCOc1ccc(C(CC(=O)O)NC(=O)c2cccs2)cc1 (stereo not drawn),"inconclusive: 100 µM [inhibitor, partial curve, poor fit]"
15,COc1ccc(C2=NS(=O)(=O)N(C)C(C(=O)NCc3ccccn3)=C2)cc1OC,"inconclusive: 28.2 µM [quencher, side channel, partial curve]"
16,CC(C)COC(=O)c1cccc2c1-c1ccccc1/C2=N\O,"inconclusive: 0.794 µM [quencher, side channel, single point]"
17,O=C(Nc1ccc(Br)cc1)c1cccc(S(=O)(=O)Nc2cnc3ccccc3c2)c1,"inconclusive: 5.62 µM [quencher, side channel, single point]"
18,Cc1cc(=O)oc2cc(OCC3CC(c4ccc(N(C)C)cc4)=NO3)ccc12 (stereo not drawn),inactive
19,Cc1nn(CCC#N)c(NC(=O)c2ccc(Cl)cc2Cl)c1P(=O)(Nc1ccc([N+](=O)[O-])cc1)N1CCOCC1 (stereo not drawn),"inconclusive: 31.6 µM [quencher, side channel, single point]"

row,Structure (SMILES),Potency
1,O=[n+]1c2c(n([O-])c3ccccc31)CCCC2,"inconclusive: 14.1 µM [quencher, side channel, partial curve]"
2,CCN(CC)Cc1c(O)ccc2c(-c3ccccc3)cc(=O)oc12,"inconclusive: 14.1 µM [quencher, side channel, partial curve]"
3,CC(=O)Oc1ccc2c(=O)oc(-c3ccc([N+](=O)[O-])cc3)nc2c1,"inconclusive: 0.631 µM [quencher, side channel, full curve, poor fit]"
4,O=C(CSc1ncccn1)N/N=C/c1cccc([N+](=O)[O-])c1,"inconclusive: 10 µM [activator, single point]"
5,Cc1nc2ncccn2c1-c1csc(Nc2cccc(C(=O)O)c2)n1,"inconclusive: 28.2 µM [quencher, side channel, partial curve]"
6,N#CC(C#N)=C/C=C(\Nc1ccc(Cl)cc1)c1ccc(Cl)cc1,"inconclusive: 6.31 µM [quencher, side channel, partial curve]"
7,Cc1ccc(C(c2nnnn2CS(=O)(=O)c2ccc(C)cc2)N2CCN(c3ncccn3)CC2)cc1 (stereo not drawn),"inconclusive: 4.47 µM [quencher, side channel, partial curve]"
8,Cc1cc(N2CCN(S(=O)(=O)c3ccc(Br)cc3)CC2)n2ncnc2n1,"inconclusive: 5.01 µM [inhibitor, single point]"
9,O=C(O)c1ccc(Cl)c(S(=O)(=O)N(Cc2ccccc2)c2ccc(Cl)cc2)c1,inactive
10,CCOC(=O)c1nnc2cc(-c3ccccc3)nn2c1C,"inconclusive: 11.2 µM [quencher, side channel, partial curve]"
11,O=C(NCCO)C(=O)c1c(-c2ccccc2)cc2ccccn12,"inconclusive: 22.4 µM [quencher, side channel, single point]"
12,Cc1[nH]n(-c2ccccc2)c(=O)c1/C=N/O,inactive
13,O=C(CSCC(=O)N1CCCc2ccccc21)Nc1nc(-c2ccccc2)cs1,"inconclusive: 0.126 µM [inhibitor, full curve, poor fit]"
14,CC1=NN(C(N)=S)C(=O)C1N=Nc1ccccc1C (stereo not drawn),"inconclusive: 3.98 µM [quencher, side channel, full curve]"
15,CN1CCN(c2nc3ccccn3c(=O)c2C=C(C#N)C#N)CC1,"inconclusive: 25.1 µM [quencher, side channel, partial curve]"
16,N=c1c[n+](-c2ccc(Cl)cc2)[n-]o1,"inconclusive: 15.8 µM [quencher, side channel, partial curve]"
17,CNC(=S)N/N=C(\C)c1cccc([N+](=O)[O-])c1,"inconclusive: 25.1 µM [quencher, side channel, partial curve]"
18,O=C(NCc1ccco1)c1cc([N+](=O)[O-])ccc1N1CCCCC1,"inconclusive: 10 µM [quencher, side channel, partial curve]"
19,Cc1ccc(S(=O)(=O)N2CCOCC2)cc1C(=O)NCc1ccc2c(c1)OCO2,"inconclusive: 0.0891 µM [quencher, side channel, full curve, poor fit]"
